One experiment addresses MICA on MDA-MB-231 cells (human, UniProt Q29983 24-383). The experiment in a line: cell-based or functional assay.
For a further experiment, the target named is T1, biotinylated human MICA (human, UniProt Q29983 24-308, limits assumed, biotinylated (site not stated)).
T1 construct: Loaded on SA tips as ligand for SI-49P6 and SI-49P7
The experiment in a line: BLI (Octet), biotinylated MICA on SA tips, GNC protein 0-100 nM as analyte.

A further experiment has as its target T2, human EGFR (human, UniProt P00533 partial chain).
T2 construct: also called huEGFR; His-tagged human EGFR
The experiment in a line: BLI (Octet), GNC on AHC sensor; strong binding, dissociation too slow to quantify KD. (Biolayer interferometry detects binding as a change in optical thickness at a sensor tip.)

In the next experiment the target is T3, human PD-L1 (human, UniProt Q9NZQ7 partial chain).
T3 construct: Bought antigen; construct not described
The experiment is described as above.

The target in another experiment is T4, human 4-1BB (human, UniProt Q07011 24-186).
T4 construct: Bought antigen; construct not described
The experiment in a line: BLI (Octet), GNC on AHC sensor, 100 nM antigen as analyte, 1:1 fit.

The next experiment deals with T5, His-tagged human MICA (human, UniProt Q29983 24-308, limits assumed).
T5 construct: Analyte in the Octet runs with the GNC protein loaded on AHC tips; also called His-tagged MICA
The experiment in a line: BLI (Octet), GNC on AHC tips, His-tagged MICA as analyte.

biotinylated human MICA, sequence (Q29983 24-308 limits assumed): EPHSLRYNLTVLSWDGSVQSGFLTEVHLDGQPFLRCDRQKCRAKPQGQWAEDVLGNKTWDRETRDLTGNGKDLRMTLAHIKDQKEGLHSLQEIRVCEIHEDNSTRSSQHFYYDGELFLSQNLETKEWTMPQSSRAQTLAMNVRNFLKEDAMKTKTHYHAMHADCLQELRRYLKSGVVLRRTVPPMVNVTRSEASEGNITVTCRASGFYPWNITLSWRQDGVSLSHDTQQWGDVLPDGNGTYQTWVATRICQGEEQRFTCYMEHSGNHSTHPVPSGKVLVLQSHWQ
His-tagged human MICA, sequence (Q29983 24-308 limits assumed): as above
MICA on MDA-MB-231 cells, sequence (Q29983 24-383): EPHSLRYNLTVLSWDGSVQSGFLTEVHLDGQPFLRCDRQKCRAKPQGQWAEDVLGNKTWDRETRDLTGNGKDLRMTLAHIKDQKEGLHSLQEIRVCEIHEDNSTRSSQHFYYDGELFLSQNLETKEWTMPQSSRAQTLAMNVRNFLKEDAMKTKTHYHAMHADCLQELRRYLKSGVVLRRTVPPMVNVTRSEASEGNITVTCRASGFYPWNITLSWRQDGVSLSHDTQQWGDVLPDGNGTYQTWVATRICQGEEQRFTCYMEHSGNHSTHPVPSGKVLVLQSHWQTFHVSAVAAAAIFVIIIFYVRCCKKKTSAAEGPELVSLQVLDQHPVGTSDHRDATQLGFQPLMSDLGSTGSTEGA

B1: SI-49P6 (other)
heavy: EIVMTQSPSTLSASVGDRVIITCQASESISSWLAWYQQKPGKAPKLLIYEASKLASGVPSRFSGSGSGAEFTLTISSLQPDDFATYYCQGYFYFISRTYVNSFGCGTKLTVLGSTGSGSKPGSGEGSTKGEVQLVESGGGLVQPGGSLRLSCTASGFTISTNAMSWVRQAPGKCLEWVGVITGRDITYYASWAKGRFTISRDTSKNTVYLQMNSLRAEDTAVYYCARDGGSSAITSNNIWGQGTLVTVSTGGGGSGGGGSFLNSLFNQEVQIPLTESYCGPCPKNWICYKNNCYQFFDESKNWYESQASCMSQNASLLKVYSKEDQDLLKLVKSYHWMGLVHIPTNGSWQWEDGSILSPNLLTIIEMQKGDCALYASSFKGYIENCSTPNTYICMQRTVASTKGPSVFPLAPSSKSTSGGTAALGCLVKDYFPEPVTVSWNSGALTSGVHTFPAVLQSSGLYSLSSVVTVPSSSLGTQTYICNVNHKPSNTKVDKRV[sequence of human IgG1 Fc with L234A L235A N297A K322A (EU numbers) not given]GGGGSGGGGSEVQLLESGGGLVQPGGSLRLSCAASGFSFSSGYDMCWVRQAPGKCLEWIACIAAGSAGITYDANWAKGRFTISRDNSKNTLYLQMNSLRAEDTAVYYCARSAFSFDYAMDLWGQGTLVTVSSGGGGSGGGGSGGGGSGGGGSDIQMTQSPSTLSASVGDRVTITCQASQSISSHLNWYQQKPGKAPKLLIYKASTLASGVPSRFSGSGSGTEFTLTISSLQPDDFATYYCQQGYSWGNVDNVFGCGTKVEIKGGGGSGGGGSGRSLVESGGGLVQPGGSLRLSCTASGFTISSYHMQWVRQAPGKCLEYIGTISSGGNVYYASSARGRFTISRPSSKNTVDLQMNSLRAEDTAVYYCARDSGYSDPMWGQGTLVTVSSGGGGSGGGGSGGGGSGGGGSDVVMTQSPSSVSASVGDRVTITCQASQNIRTYLSWYQQKPGKAPKLLIYAAANLASGVPSRFSGSGSGTDFTLTISDLEPGDAATYYCQSTYLGTDYVGGAFGCGTKVEIK
light: ENVLTQSPASLSASPGERVTITCSASSSVSYMHWYQQKPGQAPKLWIYDTSKLASGVPSRFSGSGSGNDHTLTISSMEPEDFATYYCFQGSVYPFTFGQGTKLEIKGSTGSGSKPGSGEGSTKGQVTLKESGPGLVQPGQTLRLTCAFSGFSLSTSGMGVGWIRQPPGKGLEWLAHIWWDDDKRYNPALKSRLTISKDTSKNQVYLQMNSLDAEDTAVYYCARMELWSYYFDYWGQGTLVTVSSGGGGSGGGGSGGGGSFLNSLFNQEVQIPLTESYCGPCPKNWICYKNNCYQFFDESKNWYESQASCMSQNASLLKVYSKEDQDLLKLVKSYHWMGLVHIPTNGSWQWEDGSILSPNLLTIIEMQKGDCALYASSFKGYIENCSTPNTYICMQRTVRTVAAPSVFIFPPSDEQLKSGTASVVCLLNNFYPREAKVQWKVDNALQSGNSQESVTEQDSKDSTYSLSSTLTLSKADYEKHKVYACEVTHQGLSSPVTKSFNRGEC
notes: Antibody-like penta-GNC protein; human NKG2D (F78-V216) in place of VH and VL at D2; D1 CD3, D3 PD-L1, D4 4-1BB, D6 CD19; also called αCD3×NKG2D×αPD-L1×α4-1BB×αCD19
Take B1: the “TDCC EC50, MDA-MB-231 target cells” value with MICA on MDA-MB-231 cells is 0.000737 nM. Further, the Kd (usually the concentration at which binding is half-saturated) in the experiment with biotinylated human MICA was 7.76 nM.

B2: SI-49P10 (other)
heavy: B1 heavy
light: DIQMTQSPSSLSASVGDRVTITCQASQDISNYLNWYQQKPGKAPKLLIYDASNLETGVPSRFSGSGSGTDFTFTISSLQPEDIATYFCQHFDHLPLAFGGGTKVEIKGSTGSGSKPGSGEGSTKGQVQLQESGPGLVKPSETLSLTCTVSGGSVSSGDYYWTWIRQSPGKGLEWIGHIYYSGNTNYNPSLKSRLTISIDTSKTQFSLKLSSVTAADTAIYYCVRDRVTGAFDIWGQGTMVTVSSGGGGSGGGGSGGGGSFLNSLFNQEVQIPLTESYCGPCPKNWICYKNNCYQFFDESKNWYESQASCMSQNASLLKVYSKEDQDLLKLVKSYHWMGLVHIPTNGSWQWEDGSILSPNLLTIIEMQKGDCALYASSFKGYIENCSTPNTYICMQRTVRTVAAPSVFIFPPSDEQLKSGTASVVCLLNNFYPREAKVQWKVDNALQSGNSQESVTEQDSKDSTYSLSSTLTLSKADYEKHKVYACEVTHQGLSSPVTKSFNRGEC
notes: Antibody-like penta-GNC protein; human NKG2D (F78-V216) in place of VH and VL at D2; D1 CD3, D3 PD-L1, D4 4-1BB, D6 EGFR; also called αCD3×NKG2D×αPD-L1×α4-1BB×αEGFR
As to B2, the binding result in the experiment with human EGFR and in the experiment with human PD-L1 was “binds” in each case. The Kd with human 4-1BB is 2.79 nM; in the experiment with His-tagged human MICA it was 1.84 nM.

(Values after patent US20230002488A1 (SYSTIMMUNE, published 2023).)
